# About 2,600 (0.72%) of roughly 360,000 compounds were called active. The inconclusive results got no clear call from the source; some entries with a clear call stand among them for comparison. The call rests on the fitted dose curve; in most records, active means well fitted inhibition curve with a large enough effect; inconclusive means small, poorly fitted or top-dose-only effect; inactive means no such curve, though single readings can be large or run the other way. Where the call is inconclusive, the potency comes from a doubtful curve fit.
# Experiment: Primary qHTS for Inhibitors of ATXN expression; further: nearly all actives have a fitted effect of over 55% in size
# Details: HEK-293 ATXN2-luciferase reporter, luminescence, 24 h; activity change, negative = inhibition: at 57 µM (top of the series)
# Summary of the method: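 ATXN2-luciferase reporter cells (luciferase flanked by upstream and downstream ATXN2 gene portions) were treated 24 h at 37 °C with compounds at up to 57 uM. SteadyGlo luminescence gave expression; GF-AFC fluorescence gave viability.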
# On the % scale 0 is the no-effect control and ±100 the full control effect; potency means the concentration at half of the fitted maximal effect; tags describe the fitted curve by direction and shape.
Compound,Potency,"activity change, negative = inhibition"
COC(=O)c1ccc(NC(=O)Nc2ccc(F)c(Cl)c2)cc1,"inconclusive: 39.8 µM [inhibitor, single point]",–
O=C(C1CC1)N1CC[C@@H](Cn2c(-c3ccc(-c4ccc5occc5c4)cc3)nc3cnccc32)C1,–,inactive: -18.6%
CSC1=NC(C)(C)C=C(/C=C/c2ccc(Cl)cc2)N1,"inconclusive: 21.2 µM [inhibitor, single point]",–
COc1ccccc1-c1nnc(C2CCN(C(=O)c3cccc(C)c3)CC2)o1,–,inactive: 3.08%
CC[C@@]1(C(=O)OC)N[C@H](CN(C)S(=O)(=O)c2ccccc2)[C@@H]2C(=O)N(C)C(=O)[C@@H]21,–,inactive: 2.11%
COc1cccc(Cn2c(=O)n(-c3cccc(Cl)c3)c(=O)c3c4c(sc32)CN(C(C)=O)CC4)c1,"inconclusive: 28.2 µM [inhibitor, single point]",–
CCOC(=O)N1CCN(C(=O)C2CCN(c3ncnc4c3sc3cccc(F)c34)CC2)CC1,"inconclusive: 17.8 µM [inhibitor, partial curve, poor fit]",–
Oc1ccc(/C=N/Nc2ncc(Br)cn2)c(O)c1,"inconclusive: 39.8 µM [inhibitor, single point]",–
COc1ccc2c(c1)CCc1sc(NC(=O)c3cccc(Br)c3)nc1-2,"inconclusive: 22.4 µM [inhibitor, partial curve]",–
O=C(Nc1cccc(S(=O)(=O)Nc2ccc(Cl)cc2)c1)c1ccc2c(c1)OCCO2,"inconclusive: 12.6 µM [inhibitor, partial curve]",–
CC(=O)c1ccc(N2CCN(S(=O)(=O)c3ccc4c(c3)C(Cl)(Cl)C(=O)N4)CC2)cc1,–,inactive: -2.69%
CCc1nc2c(OCCOc3ccc(F)cc3)cccn2c1N(C)C(=O)CC(C)C,"inconclusive: 39.8 µM [inhibitor, single point]",–
C=CCN(C(=O)c1cccc(C(F)(F)F)c1)C1(C(=O)Nc2ccccc2)CCN(C(C)C)CC1,–,inconclusive: -47.4% [inhibitor]
COc1ccc(CNC(=O)C(C)NS(=O)(=O)c2ccc(C)cc2)cc1 (stereo not given),"inconclusive: 1.34 µM [inhibitor, partial curve, poor fit]",–
CCOc1ccc(-c2nnc(SCC(=O)NCc3ccccc3Cl)o2)cc1,–,inactive: -5.22%
CC(=Nc1ccccc1)C1=C(O)CSC1=O,–,inactive: 29.1%
COc1c(C)cnc(Cn2cnc3c(Cl)nc(N)nc32)c1C,active: 0.193 µM,–
Cc1cc(Br)ccc1NC(=O)CN(C)C(=O)C1CCN(c2ncnc3sc(C)c(C)c23)CC1,"inconclusive: 25.1 µM [inhibitor, single point]",–
COc1ccccc1N1CCN(C(=O)c2sc3nc(-c4ccc(F)cc4)cn3c2C)CC1,"inconclusive: 37.7 µM [inhibitor, single point]",–
Cc1ccccc1-n1c(C)cc(/C=C2/C(=N)N3C(c4ccccc4)=CSC3=NC2=O)c1C,–,inactive: 4.57%
CC(=O)C1CCC2C3CCC4=CC(=O)C=CC4(C)C3CCC12C (stereo not given),"inconclusive: 39.8 µM [inhibitor, single point]",–
COc1cccc2c(SCC(=O)N/N=C/c3ccc(O)cc3O)cc(C)nc12,"inconclusive: 31.6 µM [inhibitor, partial curve, poor fit]",–

Compound,Potency,"activity change, negative = inhibition"
Cc1ccc2c(c1)C(=O)[C@]1(O)CCN(c3ccccc3)C1=N2,"inconclusive: 7.69 µM [inhibitor, partial curve]",–
CCn1c(=O)cc(OCC(=O)N2CCN(c3ccc(C)cc3)C(C)C2)c2ccccc21 (stereo not given),"inconclusive: 39.8 µM [inhibitor, single point]",–
O=Nc1c(O)c2ccccc2c2ccccc12,active: 7.94 µM,–
CCOC(=O)N1CCOCCOCCN(C(=O)OCC)CCOCC1,"inconclusive: 14.1 µM [inhibitor, partial curve, poor fit]",–
O=C(Cn1ncc2c1-c1ccccc1OC2)N1CCN(c2ccccc2)CC1,–,inactive: -6.49%
CC(C)Oc1ccc(/C=N/NC(=O)c2ccc(N(Cc3ccccc3)S(C)(=O)=O)cc2)cc1,–,inactive: 27%
FC(F)(F)c1cccc(NC(=S)Nc2cccc(NC(=S)Nc3cccc(C(F)(F)F)c3)n2)c1,"inconclusive: 39.8 µM [inhibitor, single point]",–
CCN1/C(=C/c2ccc3cc(C)ccc3[n+]2CC)Sc2ccc3sccc3c21,"inconclusive: 2.82 µM [inhibitor, full curve]",–
Cc1nc2c(-c3ccccc3)c(C)nn2c(C)c1CCC(=O)NC(C)CCc1ccco1 (stereo not given),"inconclusive: 39.8 µM [inhibitor, single point]",–
COc1ccc(CC(N)c2csc(NC(=O)Nc3ccccc3Oc3ccccc3)n2)cc1 (stereo not given),"inconclusive: 35.5 µM [inhibitor, single point]",–
COc1ccc(OC)c(-c2cc(C3CCN(c4ncccc4[N+](=O)[O-])CC3)[nH]n2)c1,"inconclusive: 39.8 µM [inhibitor, single point]",–
COc1ccc(-c2sc3cc4c(cc3c2-c2ccc(OCCN3CCOCC3)cc2)OCO4)cc1,–,inactive: -3.07%
O=C(Cn1ncc(Cl)c(Cl)c1=O)N1CCc2ccccc21,"inconclusive: 7.52 µM [inhibitor, full curve, poor fit]",–
Cc1nc(C(F)(F)F)c(C(=O)N/N=C(\N)c2ccccn2)s1,"inconclusive: 31.6 µM [inhibitor, partial curve, poor fit]",–
c1ccc2c(CCNc3ccc(Nc4ccncc4)cc3)c[nH]c2c1,active: 15.3 µM,–
CC(=O)c1c(C)[nH]c(C(=O)CSc2nnc(NC3CC3)s2)c1C,–,inactive: -15.7%
COc1ccccc1NC(=O)C1=C(C)Nc2nc(SCc3ccccc3)nn2C1c1cccc(O)c1 (stereo not given),"inconclusive: 28.2 µM [inhibitor, single point]",–
COCCNC(=O)C1CCN(Cc2cc3ccccc3n2Cc2ccc(C)cc2)CC1,"inconclusive: 22.4 µM [inhibitor, single point]",–
COc1ccc(-c2coc3c(C(=O)NCC4CC4)cccc23)c(C)c1,"inconclusive: 28.2 µM [inhibitor, single point]",–
O=C1NC(Cc2ccccc2)c2nc3ccc(Cl)cc3c(=O)n2-c2cc3ccccc3cc21 (stereo not given),–,inactive: -2.55%
CCOC(=O)N1CCN(c2ccnc3cc(Cl)ccc23)CC1,"inconclusive: 10 µM [inhibitor, partial curve]",–
CCc1ccc2c(c1)c(=O)c(S(=O)(=O)c1ccc(F)cc1)cn2CC(=O)Nc1ccccc1OC,–,inactive: 4.25%

Compound,Potency,"activity change, negative = inhibition"
CC[C@H](C)C1OC(=O)[C@@H](C)[C@@H](CC)NC(=O)[C@H](C)N(C)C(=O)C(C)(C)C(=O)C(C)NC(=O)[C@H](Cc2ccc(OC)cc2)N(C)C(=O)[C@H](C(C)C)N(C)C(=O)CNC(=O)[C@H](CC(C)C)N(C)C(=O)CNC1=O (stereo not given in full),"inconclusive: 0.398 µM [inhibitor, full curve]",–
COc1ccc(/C=C2\SC(=S)N(CCC(=O)NC3=NCCS3)C2=O)cc1OC,"inconclusive: 15.8 µM [inhibitor, partial curve, poor fit]",–
Cc1ncc([N+](=O)[O-])n1CC(=O)Nc1cc(Cl)ccc1Cl,–,inactive: -8.84%
c1ccc(C[C@H]2CNCCN2CCCCC2CCCCC2)cc1,–,inactive: -32.1%
CC(C)Oc1ccc(CNC(=O)Oc2ccccc2)cc1,–,inconclusive: -43% [inhibitor]
NC(=S)Nc1cc2ccccc2c2ccccc12,"inconclusive: 17.8 µM [inhibitor, partial curve, poor fit]",–
Cc1c(CCC(=O)N[C@@H](CC(C)C)C(=O)O)c(=O)oc2c(C)c3oc4c(c3cc12)CCCC4,"inconclusive: 14.1 µM [inhibitor, single point]",–
C=C1C(=O)OC2C1CCC(C)C1C=CC(=O)C12C (stereo not given),"inconclusive: 39.8 µM [inhibitor, single point]",–
COc1ccc(-c2cnc3c(NC=O)cc(-c4cc(OC)c(OC)c(OC)c4)cn23)cc1OC,"inconclusive: 25.1 µM [inhibitor, partial curve]",–
Cc1nc2nc(CNC(=O)OC(C)(C)C)nn2c(C)c1CCC(=O)NCc1ccccc1Cl,–,inactive: 4.59%
CC(=O)c1cccc(S(=O)(=O)NCCC(=O)Nc2ccc(S(N)(=O)=O)cc2)c1,–,inactive: -1.61%
Cc1ccc(CN=Cc2[nH]c3ccc(Br)c(Cl)c3c2O)cc1,–,inactive: -21.3%
Cc1ccccc1Cn1nnc2c1C(=O)c1ccccc1C2=O,–,inactive: -16.6%
Cc1nc2ccccc2n1/N=C/c1ccc([N+](=O)[O-])o1,"inconclusive: 20 µM [inhibitor, partial curve, poor fit]",–
Cc1ccc(S(=O)(=O)Nc2ccc(C(=O)Nc3cc(C)on3)cc2)cc1,–,inactive: 2.96%
CC(C)(C)NCC(O)COc1ccc(Br)cc1 (stereo not given),"inconclusive: 25.1 µM [inhibitor, partial curve, poor fit]",–
C=CCN1C=C2C(=O)C(C)(OC(=O)CCC(=O)OC)C(=O)C(Br)=C2C=C1c1ccc(OC)cc1 (stereo not given),–,inactive: 8.23%
CCCCCc1cc(=O)oc2c(C(CCN3CCCC3)c3ccc(N(C)C)cc3)c(OC)cc(OC)c12 (stereo not given),"inconclusive: 35.5 µM [inhibitor, single point]",–
O=C(/C=C/c1ccc(Cl)cc1)c1ccc([N+](=O)[O-])o1,"inconclusive: 2.82 µM [inhibitor, full curve, poor fit]",–
N#CC(=C(O)COC(=O)CCCNC(=O)c1ccc(Cl)cc1)c1nc2ccccc2[nH]1,"inconclusive: 25.1 µM [inhibitor, single point]",–
COc1ccc(CN([C@H](CO)CC(C)C)S(=O)(=O)N(Cc2ccccc2)[C@H](CO)CC(C)C)cc1,"inconclusive: 3.98 µM [inhibitor, partial curve, poor fit]",–
